From PMC4336329 (PLoS ONE, 2015)
The whole screen tested about 310,000 compounds, of which about 14,000 (4.5%) showed an effect of 50% or more. The effect is printed as a negative number. This is one part of the list.

These molecules were tested against human ether-à-go-go-related gene (hERG) potassium channel (human, UniProt Q12809) (assay: primary screen, population patch clamp on CHO cells stably expressing hERG).
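Further: peak tail current of the secondary pulse compared with the same well before compound.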

Sequence of human ether-à-go-go-related gene (hERG) potassium channel (Q12809 whole entry, looked up): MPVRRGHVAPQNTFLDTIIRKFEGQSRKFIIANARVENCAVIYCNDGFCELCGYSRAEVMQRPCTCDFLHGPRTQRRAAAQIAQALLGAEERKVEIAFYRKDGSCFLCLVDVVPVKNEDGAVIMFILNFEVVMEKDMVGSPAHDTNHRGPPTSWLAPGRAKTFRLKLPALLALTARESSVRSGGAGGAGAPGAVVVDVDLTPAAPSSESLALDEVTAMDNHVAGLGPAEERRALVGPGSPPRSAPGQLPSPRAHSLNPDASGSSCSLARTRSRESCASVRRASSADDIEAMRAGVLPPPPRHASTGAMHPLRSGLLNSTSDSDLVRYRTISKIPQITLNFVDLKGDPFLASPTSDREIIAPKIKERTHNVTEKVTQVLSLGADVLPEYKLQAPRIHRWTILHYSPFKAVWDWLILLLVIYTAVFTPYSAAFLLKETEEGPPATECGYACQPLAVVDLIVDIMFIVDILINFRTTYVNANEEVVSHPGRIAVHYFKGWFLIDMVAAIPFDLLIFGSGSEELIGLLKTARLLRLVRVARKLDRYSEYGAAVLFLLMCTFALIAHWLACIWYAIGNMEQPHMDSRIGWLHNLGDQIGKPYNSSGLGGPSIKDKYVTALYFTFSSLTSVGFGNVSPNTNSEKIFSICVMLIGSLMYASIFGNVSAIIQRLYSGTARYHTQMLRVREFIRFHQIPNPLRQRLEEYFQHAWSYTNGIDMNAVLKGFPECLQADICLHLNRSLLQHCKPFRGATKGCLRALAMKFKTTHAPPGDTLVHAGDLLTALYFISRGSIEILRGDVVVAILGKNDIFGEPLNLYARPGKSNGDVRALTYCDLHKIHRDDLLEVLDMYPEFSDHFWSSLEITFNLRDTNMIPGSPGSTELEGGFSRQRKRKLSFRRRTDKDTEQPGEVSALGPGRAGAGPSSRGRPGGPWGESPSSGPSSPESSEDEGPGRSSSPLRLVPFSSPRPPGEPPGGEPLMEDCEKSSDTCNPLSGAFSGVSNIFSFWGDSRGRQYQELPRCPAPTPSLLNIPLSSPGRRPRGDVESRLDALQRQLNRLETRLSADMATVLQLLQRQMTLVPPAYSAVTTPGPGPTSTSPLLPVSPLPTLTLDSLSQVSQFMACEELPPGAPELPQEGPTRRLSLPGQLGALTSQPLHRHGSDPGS

Compound | hERG current change (%, negative = inhibition) at 10uM [%]
COCCNC(=O)C(c1ccc(C)o1)N(Cc1cccs1)C(=O)c1snc(C(N)=O)c1N (stereo not drawn) | -10.6
Cc1ccc(S(=O)(=O)N2CCCCC2)cc1NC(=O)CSc1nncn1-c1ccccc1 | -35.2
CC(=O)Nc1ccc(S(=O)(=O)Nc2ccccc2C(=O)N2CCCC2)cc1 | 17
CC(C)(C)C(=O)CN1CCN(C2c3ccccc3-c3ccccc32)CC1 | -6.25
CCn1c(SCC(=O)NC2CCCC2)nnc1-c1ccccn1 | 13.4
Cc1ccc(C)c(NC(=O)c2cc(C)nc3ccccc23)c1 | -12
COc1ccc(N=C2S/C(=C\c3cc(C)n(C)c3C)C(=O)N2C)cc1 | 9.87
Cc1noc(C)c1CSCC(=O)N(C)CC(=O)Nc1ccc(F)cc1 | -3.23
O=C(NNc1nc2c(F)cccc2s1)c1ccc(F)cc1 | 21.1
O=S(=O)(c1ccc(S(=O)(=O)N(Cc2ccco2)Cc2ccccc2Cl)cc1)N1CCCC1 | 11.2
Cc1[nH]c2ccccc2c1C(=O)C(C)Sc1nnc(C2CC2)o1 (stereo not drawn) | -3.91
O=C(C1CCCN(C2CC(=O)N(c3ccc(Cl)cc3)C2=O)C1)N1CCCC1 (stereo not drawn) | 12.2
COc1ccc(Cn2nc(C(=O)O)c3ccccc3c2=O)cc1F | -0.829
Cc1ccc(C)c(CN2C(=O)NC3(CCCCCC3)C2=O)c1 | 19.6
Cc1ccc(S(=O)(=O)NCc2ccc(C(=O)NCCc3ccc(S(N)(=O)=O)cc3)cc2)cc1 | 15
O=c1cc(CSc2ccc(Cl)cc2)nc(N2CCOCC2)[nH]1 | 7.86
CSCC[C@H](NC(=O)c1ccc2c(c1)OCO2)c1nnc2ccccn12 | -2.8
Cc1cc(C)c2c(N)c(C(=O)Nc3ccc(C)c(C)c3)sc2n1 | 8.41
O=C1CC(N2CCC(n3c(=O)[nH]c4ccccc43)CC2)C(=O)N1Cc1ccccc1 (stereo not drawn) | -21.4
O=C(NCCc1ccccc1F)[C@@H]1CSC2c3ccccc3C(=O)N21 (stereo partly drawn) | -6.84
CCC(NC(=O)c1ccccc1NC(=O)c1ccccc1)C(=O)NNC(=O)c1cccnc1 (stereo not drawn) | 11
N#Cc1cnc2sc3ccccc3n2c1=N | -19.9

Compound | hERG current change (%, negative = inhibition) at 10uM [%]
COc1ccc(OC)c(C2c3c(oc4ccccc4c3=O)C(=O)N2CCCN(C)C)c1 (stereo not drawn) | 11.9
O=C(COC(=O)CNS(=O)(=O)c1ccc(Br)cc1Cl)NCCc1ccccc1 | -13.6
COC(=O)C(NC(C)=O)(Nc1nc2c(C)cc(C)cc2s1)C(F)(F)F (stereo not drawn) | 16.1
CCOCCCNC(=S)N1CCC(NC(=O)C2CCCCC2)CC1 | -0.645
O=C(c1ccncc1)N1CCN(C(=O)c2cccs2)CC1 | 6.46
O=C(CNS(=O)(=O)c1ccc2ccccc2c1)Nc1ccc(F)c(F)c1F | 5.27
O=C(O)CN1C(=O)/C(=C\c2cn(-c3ccccc3)nc2-c2ccccc2)SC1=S | 14.4
O=C(O)CSc1nnc(CNc2ccc(Cl)cc2)n1Cc1ccccc1 | -15.6
C=C(C)C(=O)N1CC2(CC(c3cccc(NC(=O)CCCCC)c3)=NO2)C[C@H]1C(N)=O (stereo partly drawn) | -2.39
CCO[C@H]1OC(C(=O)N2CCN(Cc3ccc4c(c3)OCO4)CC2)=C[C@@H](C2CCCCC2)[C@@H]1CCCO | -55.5
COc1ccc(-c2nc(CS(=O)(=O)CC(=O)NCCCc3ccccc3)c(C)o2)cc1 | 7.06
Cc1c(CC(=O)NCCCCCC(=O)O)c(=O)oc2cc3occ(-c4ccccc4)c3cc12 | 12
COc1ccc(CCNC(=O)[C@@H](NC(=O)c2ccccc2F)C(C)C)cc1OC | -9.87
Cc1ccc2c(nc3s/c(=C\c4ccc(-c5ccccc5C(=O)O)o4)c(=O)n32)c1C | 18.8
COc1cc(/C=N/N2C(=O)c3ccccc3C2=O)ccc1O | 2.22
Cc1ccccc1N1C(=O)c2cc(S(N)(=O)=O)c(Cl)cc2NC1C (stereo not drawn) | 11.7
Clc1ccccc1CO/N=C1\CCCc2nonc21 | -3.54
Cc1nc2ccc(NC(=O)C3CCCCC3)cc2s1 | -2.22
COc1ccccc1CN1CCC(CNS(=O)(=O)c2cc(-c3cc(C)no3)ccc2C)CC1 | -61.3
CCCCOCCCN1CC(=O)N2[C@@H](Cc3c([nH]c4ccccc34)C2(C)C)C1=O | 16.8
CN(Cc1cnccn1)C(=O)CC1C(=O)NCCN1Cc1cccc(F)c1 (stereo not drawn) | 6.51
Cn1cc([C@@H]2C[C@H]3CN(C4CCCC4)C(=O)[C@]34CCCN24)c(-c2ccccc2)n1 | -18.5

Compound | hERG current change (%, negative = inhibition) at 10uM [%]
CC12CCC3C(CC=C4CC(O)CCC43C)C1C/C(=C\c1ccccc1F)C2=O (stereo not drawn) | -27.7
CC(=O)Nc1ccc(Oc2cnccn2)cc1 | 9
CCNS(=O)(=O)c1ccc(-c2ccc(-n3cnnn3)cc2)cc1 | -21.1
O=P1(NCc2ccco2)COc2ccccc2OC1 | 0.63
O=C1C(Cl)=C(N2CCN(Cc3ccccc3)CC2)C(=O)N1c1ccccc1 | 5.17
COCCNC(=S)N/N=C(\C)c1ccc(OC)cc1 | 1.26
CCCCOc1ccc(/C=C/C2=CC(C)(C)NC(=S)N2)cc1OCC | 7.58
CCCc1cc(=O)[nH]c(SCc2nc3ccccc3o2)n1 | 4.41
Cc1ccc(C(=O)NC(=S)Nc2ccc3c(c2)OCCO3)c(C)c1 | 4.11
COc1cccc(C2CC(=O)N3CN(c4cccc(Cl)c4C)CSC3=C2C#N)c1OC (stereo not drawn) | 8.86
COCc1cc(=O)[nH]c(-c2ccc(C(F)(F)F)cc2)n1 | 11.3
Cc1ccccc1CN1CCN(CC(=O)NCc2ccccc2)CC1 | -22.8
Cc1ccc(C(=O)Nc2cc(C)nn2CCC#N)cc1 | -28.6
Cc1ccccc1NC(=O)CSc1nnc(C)c2ccccc12 | -11.1
O=C(NCc1ccncc1)C1=NN(c2ccccc2)C(=O)CC1 | 6.06
Cc1ccc(-c2csc(NC(=O)CSc3ncn(-c4ccccc4)n3)n2)cc1 | 3.86
CCn1cc([N+](=O)[O-])c(C(=O)NCc2ccc(Cl)cc2)n1 | -6.18
CCOc1ccc(NC(=O)c2cccc(-n3cccc3)c2)cc1S(=O)(=O)N1CCOCC1 | -30.4
COCCNC(=S)Nc1ccccc1[N+](=O)[O-] | 43.5
O=C(NCc1ccccc1)C(c1ccccc1F)N(C(=O)c1csnn1)C1CCCC1 (stereo not drawn) | 7.52
O=C1Nc2ccc(Br)cc2C(c2ccccc2Cl)=NC1O (stereo not drawn) | -48.6
CC(=O)NC(Cc1cccc(F)c1)C(=O)NC1CCN(C(=O)c2cccc(C)c2)CC1 (stereo not drawn) | 12

Compound | hERG current change (%, negative = inhibition) at 10uM [%]
CCc1sc(N(C(=O)Cc2ccccc2)c2ccc(F)cc2)nc1-c1ccccc1 | 18.8
COc1ccc(CN(C)CC(=O)c2c(N)n(Cc3ccccc3)c(=O)n(C)c2=O)c(OC)c1 | -66.1
Cc1ccc(CSc2nncn2-c2ccccn2)cc1 | 3.55
COc1cc(CC(=O)N/N=C/c2ccccc2)c([N+](=O)[O-])cc1OC | 0.219
Cc1cc(C(=O)Nc2ccccc2Cl)n(-c2ccccc2)n1 | 12.2
CCN1CCCC1CNC(=O)CN1C(=O)COc2ccc(C)cc21 (stereo not drawn) | -12.4
COCC(=O)Nc1cc(Cl)c(OC)cc1OC | 1.45
CCCCSC1=C(C#N)C(c2ccccc2C)C(C(=O)OCC)C(=O)N1 (stereo not drawn) | -3.34
COc1ccc(NC(=O)CSCC(=O)N(C)Cc2cccc(OC)c2OC)cc1 | 2.8
Cc1ccc(C(=O)C2CCOC(C)(C)C2)cc1 (stereo not drawn) | -0.917
CS(=O)(=O)N1N=C(c2ccc(Cl)cc2)CC1c1cccs1 (stereo not drawn) | -17.7
Cc1nnc(N2C(=O)C(O)=C(C(=O)c3ccco3)C2c2ccc(F)cc2)s1 (stereo not drawn) | 13.4
CCOc1cc(CNc2ccc3c(c2)OCCO3)cc(Br)c1OC | 4.78
O=C(NCc1nnc2c(C(F)(F)F)cc(Cl)cn12)c1ccc(Br)o1 | 0.447
Cc1cc(C)cc(NC(=S)NCc2ccc3[nH]c4c(c3c2)CCCC4)c1 | 16
COc1ccc(CCNC(=O)C2CC3Cn4c(nc5cc(C)c(C)cc54)C3N2C)cc1 (stereo not drawn) | -31.4
O=C(NCC(=O)N1CCN(S(=O)(=O)/C=C/c2ccccc2)CC1)c1ccccc1F | 10.7
CN1CCc2nc(SCC(=O)Nc3ccc(Cl)cc3)c(C#N)cc2C1 | -38.4
CCSc1oc(-c2ccco2)nc1S(=O)(=O)c1ccccc1 | -12.8
OC(CNC1CCCCC1)C(F)(F)F (stereo not drawn) | -2.73
CCC(C)c1ccccc1OCCCNC1CCCC1.O=C(O)C(=O)O (stereo not drawn) | -30.1
